The chains are these.
B1: G1-3J-DAR4-(B1) (antibody, human IgG1, lambda)
heavy: QVQLVQSGAEVKKPGSSVKVSCKASGGTFSDYAITWVRQAPGQGLEWMGGIIPIFGTANYAQKFQGRVTITADESTSTAYMELSSLRSEDTAVYYCAREGGLLTDISYSRYWFAYWGQGTLVTVSSASTKGPSVFPLAPSSKSTSGGTAALGCLVKDYFPCPVTVSWNSGALTSGVHTFPAVLQSSGLYSLSSVVTVPSSSLGTQTYICNVNHKPSNTKVDKRV[in this place human IgG1 Fc with S375C (EU numbers)]
light: SYELTQPLSVSVALGQTARITCSGDALRDKFVYWYQQKPGQAPVLVIYDDNNRPSGIPERFSGSNSGNTATLTISRAQAGDEADYYCQSWDHSYSLVVFGGGTKLTVLGQPKAAPSVTLFPPSSEELQANKATLVCLISDFYPGAVTVAWKADSSPVKAGVETTTPSKQSNNKYAASSYLSLTPEQWKSHRSYSCQVTHEGSTVEKTVAPTECS
modifications: here or on the partner: linker-drug (B1) on the engineered cysteines E152C and S375C (EU numbering), DAR4
B2: G1-3R-DAR4-(B1) (antibody, human IgG1, lambda)
heavy: QVQLVQSGAEVKKPGSSVKVSCKASGGTFSDYAITWVRQAPGQGLEWMGGIIPIFGTANYAQKFQGRVTITADESTSTAYMELSSLRSEDTAVYYCAREGGLLTDISYSRYWFAYWGQGTLVTVSSASTKGPSVFPLAPSSKSTSGGTAALGCLVKDYFPCPVTVSWNSGALTSGVHTFPAVLQSSGLYSLSSVVTVPSSSLGTQTYICNVNHKPSNTKVDKRV[in this place human IgG1 Fc with S375C (EU numbers)]
light: SYELTQPPSVSVSPGQTASITCSGDALRDKFVYWYQQKPGQSPVLVIYDDNNRPSGIPERFSGSNSGNTATLTISGTQAMDEADYYCQSWDHSYSLVVFGGGTKLTVLGQPKAAPSVTLFPPSSEELQANKATLVCLISDFYPGAVTVAWKADSSPVKAGVETTTPSKQSNNKYAASSYLSLTPEQWKSHRSYSCQVTHEGSTVEKTVAPTECS
modifications: here or on the partner: linker-drug (B1) on the engineered cysteines E152C and S375C (EU numbering), DAR4
B3: Anti-PMEL17G1_E152C_S375C_(B1) (antibody, human IgG1, lambda)
heavy: QVQLVQSGAEVKKPGSSVKVSCKASGGTFSDYAITWVRQAPGQGLEWMGGIIPIFGTANYAQKFQGRVTITADESTSTAYMELSSLRSEDTAVYYCAREGGLLTDISYSRYWFAYWGQGTLVTVSSASTKGPSVFPLAPSSKSTSGGTAALGCLVKDYFPCPVTVSWNSGALTSGVHTFPAVLQSSGLYSLSSVVTVPSSSLGTQTYICNVNHKPSNTKVDKRV[in this place human IgG1 Fc with S375C (EU numbers)]
light: DIELTQPPSVSVSPGQTASITCSGDALRDKFVYWYQQKPGQAPVLVIYDDNNRPSGIPERFSGSNSGNTATLTISGTQAEDEADYYCQSWDHSYSLVVFGGGTKLTVLGQPKAAPSVTLFPPSSEELQANKATLVCLISDFYPGAVTVAWKADSSPVKAGVETTTPSKQSNNKYAASSYLSLTPEQWKSHRSYSCQVTHEGSTVEKTVAPTECS
modifications: here or on the partner: linker-drug (B1) on the engineered cysteines E152C and S375C (EU numbering), DAR4

For the experiment, the target named is human PMEL17 (human), P40967. As to the kind of experiment: cell-based or functional assay.
Chain of human PMEL17 (human), P40967 (P40967 25-661): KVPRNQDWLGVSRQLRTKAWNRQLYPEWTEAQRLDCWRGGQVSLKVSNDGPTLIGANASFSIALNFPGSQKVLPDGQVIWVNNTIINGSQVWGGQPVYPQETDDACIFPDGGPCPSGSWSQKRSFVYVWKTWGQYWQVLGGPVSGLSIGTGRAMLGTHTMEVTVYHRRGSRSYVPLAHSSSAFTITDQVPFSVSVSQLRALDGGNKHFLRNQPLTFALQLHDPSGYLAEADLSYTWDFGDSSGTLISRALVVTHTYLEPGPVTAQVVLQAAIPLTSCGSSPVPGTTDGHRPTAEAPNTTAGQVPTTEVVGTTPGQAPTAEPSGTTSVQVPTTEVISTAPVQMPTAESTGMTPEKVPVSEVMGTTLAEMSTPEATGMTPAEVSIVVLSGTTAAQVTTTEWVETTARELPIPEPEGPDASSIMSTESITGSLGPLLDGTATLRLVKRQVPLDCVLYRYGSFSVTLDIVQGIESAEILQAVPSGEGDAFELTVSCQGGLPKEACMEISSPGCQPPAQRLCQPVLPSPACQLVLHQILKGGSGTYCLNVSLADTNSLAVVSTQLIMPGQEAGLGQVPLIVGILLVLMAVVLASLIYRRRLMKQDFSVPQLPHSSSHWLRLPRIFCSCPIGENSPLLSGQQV
B1 registered a GI50, cell proliferation (resazurin-based viability assay), 92.1 cells of 0.85 nM and a GI50, cell proliferation (resazurin-based viability assay), MP41 cells of 0.582 nM.
The corresponding values for B2 are 0.811 nM and 0.654 nM.
For B3, the GI50, cell proliferation (resazurin-based viability assay), 92.1 cells turned out to be 0.722 nM and the GI50, cell proliferation (resazurin-based viability assay), MP41 cells amounted to 0.563 nM.

The values above are taken from patent US20240189439A1.
